Test [1] deals with T1, human IGF1R extracellular domain, His-tagged (human, UniProt P08069 31-932).
T1 construct: Bought (R&D Systems 391-GR or Sino Biological 10164-H08H); also called recombinant IGF1R; ECD of IGF1R
The test is described as follows: ELISA on coated IGF1R, antibody titrated up to 400 nM; C of the 4-P fit.

The target of test [2] is T2, human IGF1R on cells (human, UniProt P08069 31-1367).
T2 construct: also called endogenous IGF1R on the cell surface (MCF-7, JIMT-1, BT474, SKBR3); IGF1R library on OVCAR3 cells
As to the kind of experiment: FACS on MCF-7 cells, 10 ug/mL (2nd Ab only: 2.86).

Test [3] deals with human alpha-synuclein aggregates (fibrils) (human, UniProt P37840). As to the kind of experiment: ELISA, alpha-synuclein aggregates coated, antibody titrated up to 400 nM; C of the 4-P fit. Background: ELISA stands for enzyme-linked immunosorbent assay.

Consider one molecule from US20240101687A1 (ABL BIO, published 2024).

B1: Hu11F11(ver.2)-1564 bivalent (bispecific antibody, human IgG1, kappa)
heavy: EVQLVESGGGLVQPGGSLRLSCATSGFTFSDFYMEWVRQPPGKRLEWIAASRNKANDYTTEYSASVKGRFTVSRDDSKSSLYLQMNSLRAEDTAIYYCARDAHGKPFAYWGQGTTVTVSS[human IgG1 constant region not written out]GGGGSGGGGSGGGGSQSVLTQPPSASGTPGQRVTISCTGSSSNIGSNDVSWYQQLPGTAPKLLIYANSNRPSGVPDRFSGSKSGTSASLAISGLRSEDEADYYCGAWDDSLNGYVFGCGTKLTVLGGGGSGGGGSGGGGSGGGGSEVQLLESGGGLVQPGGSLRLSCAASGFTFSSYDMSWVRQAPGKCLEWVSAISYDNGNTYYADSVKGRFTISRDNSKNTLYLQMNSLRAEDTAVYYCAKGVLTTLMNWFDYWGQGTLVTVSS
light: DIVMTQSPSSLAVSLGERVTMS[about 80 residues not written out][about 120 residues not written out]
As a reminder, the EC50 is the concentration that produces a half-maximal response. A high value points to a less potent agent. For B1, the EC50 in test [1] is 0.649 nM; in test [3], 4.27 nM. For the same molecule, the “GeoMean, Internalization at 37° C.” value in test [2] came to 7.34.
